The shares of active, inactive and inconclusive entries below differ from those in the screen. Potencies of inconclusive entries are doubtful fits and often do not repeat. Activity calls are given as the source filed them. Calls follow the shape of the dose curve; as a rule, active = well fitted cell-killing curve with a large enough effect; inconclusive = small, poorly fitted or top-dose-only effect, or effect the other way; inactive = no such curve, though single readings can be large or run the other way.
Key:
[1] = Viability qHTS for spleen associated tyrosine kinase inhibitor (SYKi) naive MV4-11 cells (AID 1963823); settings: MV4-11 AML viability, CellTiter-Glo luminescence, 72 h; viability (% of control): at 45 µM (top of the series); also: nearly all actives have a fitted effect of over 40% in size
How it was run: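 SYK inhibitor-naive MV4-11 cells, 500 per well, exposed to compounds for 72 hr at 37 C, 5% CO2. Viability read as CellTiter-Glo luminescence after 10 min at room temperature.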

[2] = Viability qHTS for spleen associated tyrosine kinase inhibitor (SYKi) drug resistant MV4-11 cells (AID 1963824); also: nearly all actives have a fitted effect of over 35% in size
How it was run: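 SYK-inhibitor-resistant MV4-11 AML cells were seeded at 500 per well onto compound and cultured 72 hours (37 °C, 5% CO2). CellTiter-Glo was then added, and after 10 min at room temperature, luminescence gave viability.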
Potency is read from the fitted curve at half-maximal effect; tags tell the direction and shape of the fitted curve.

Row | Structure (SMILES) | Potency [1] | Potency [2] | viability (% of control) [1] | viability, % of control [2]
1 | CC(C)=CC/C=C(\C)[C@H]1CC[C@]2(C)[C@@H]1[C@H](O)C[C@@H]1[C@@]3(C)CC[C@H](O)C(C)(C)[C@@H]3[C@@H](O[C@@H]3O[C@H](CO)[C@@H](O)[C@H](O)[C@H]3O)C[C@]12C | inactive | inactive |  | 
2 | C/C(=C/CO)CCC1C(C)CCC2C(C)(C)CCCC12C (configuration not stated) | inconclusive: 23.1 µM [cytotoxic, single point] | inconclusive: 23.1 µM [cytotoxic, partial curve, poor fit] |  | 
3 | Cc1cn(C[C@H](N)C(=O)O)c(=O)n(Cc2ccsc2C(=O)O)c1=O | inactive | inactive |  | 
4 | O=c1cc(-c2ccc(O)cc2)oc2cc(OC3OC(CO)C(O)C(O)C3O)c(C3OC(CO)C(O)C(O)C3O)c(O)c12 (configuration not stated) | inactive | inactive |  | 
5 | Nc1nc2c(c(=O)[nH]1)C[C@@H](CCc1ccc(C(=O)N[C@@H](CCC(=O)O)C(=O)O)cc1)CN2 | inconclusive: 0.0082 µM [cytotoxic, full curve] | active: 0.0092 µM |  | 
6 | CCOc1cc(C)c(Cl)cc1S(=O)(=O)n1cnc2ccccc21 | inconclusive: 6.32 µM [cytotoxic, partial curve, poor fit] | inconclusive: 10 µM [cytotoxic, partial curve, poor fit] |  | 
7 | C[C@@H]1O[C@@H](O[C@H]2[C@H](OC(=O)[C@]34CCC(C)(C)C[C@H]3C3=CCC5[C@@]6(C)CC[C@H](O[C@@H]7O[C@H](CO[C@@H]8OC[C@H](O)[C@H](O)[C@H]8O)[C@@H](O)[C@H](O)[C@H]7O)C(C)(C)C6CC[C@@]5(C)[C@]3(C)C[C@H]4O)OC[C@@H](O)[C@@H]2O)[C@H](O)[C@H](O)[C@H]1O[C@@H]1OC[C@H](O)[C@H](O[C@@H]2OC[C@@H](O)[C@H](O)[C@H]2O)[C@H]1O (some centres not stated) |  |  | inactive: 84.1% [at 9.25 µM] | inactive: 84.6% [at 9.25 µM]
8 | CC(=O)O[C@@H]1CC(C)=C2[C@H]1[C@H](C)CC[C@H]2/C=C(\C)C(=O)O | inconclusive: 20.6 µM [cytotoxic, single point] | active: 16.4 µM |  | 
9 | Fc1ccc(-c2nc3n(c2-c2ccncc2)CCS3)cc1 | inconclusive: 20.6 µM [cytotoxic, partial curve] | inconclusive: 20.6 µM [cytotoxic, single point] |  | 
10 | CC1(C)CC[C@]23CO[C@@]4(CCC5[C@@]6(C)CC[C@H](O[C@@H]7OC[C@H](O[C@@H]8O[C@H](CO)[C@@H](O)[C@H](O)[C@H]8O[C@@H]8OC[C@@H](O)[C@H](O)[C@H]8O)[C@H](O)[C@H]7O[C@@H]7O[C@H](CO)[C@@H](O)[C@H](O)[C@H]7O)[C@@](C)(CO)C6CC[C@@]5(C)[C@]4(C)C[C@H]2O)[C@@H]3C1 (some centres not stated) | active: 2.19 µM | active: 3.9 µM |  | 
11 | O=C(O)c1ccccc1NC(=O)N1CCC(c2ccccc2C(F)(F)F)CC1 | inconclusive: 29.1 µM [cytotoxic, single point] | inconclusive: 23.1 µM [cytotoxic, single point] |  | 
12 | C=C(C)[C@@H]1CC=C(COC(=O)NC(=O)c2ncn3c(=O)n(C)nnc23)CC1 | inconclusive: 29.1 µM [cytotoxic, single point] | inconclusive: 18.4 µM [cytotoxic, single point] |  | 
13 | CCc1ccc(Cc2ccc3c(c2)[C@]2(OC3)O[C@H](CO)[C@@H](O)[C@H](O)[C@H]2O)cc1 | inconclusive: 20.6 µM [cytotoxic, partial curve] | inconclusive: 16.4 µM [cytotoxic, single point] |  | 
14 | NCC(=O)CCC(=O)O | inactive | inactive |  | 
15 | C=C1CC[C@H](O)CC1=C/C=C1\CCC[C@]2(C)[C@@H]([C@H](C)/C=C/[C@H](C)C(C)C)CC[C@@H]12 | active: 8.2 µM | active: 9.2 µM |  | 
16 | CC1OC(OC2C(O)COC(O[C@@H]3[C@@H](O)[C@@H](O)[C@H](OC4C(OC(=O)[C@]56CCC(C)(C)CC5C5=CCC7[C@@]8(C)C[C@H](O)[C@H](OC9OC(CO)C(O)C(O)C9O)[C@@](C)(CO)C8[C@H](O)C[C@@]7(C)[C@]5(C)CC6)OCC(O)C4O)O[C@H]3C)C2O)C(O)C(O)C1O (some centres not stated) | inconclusive: 2.19 µM [cytotoxic, single point] | active: 1.23 µM |  | 

— PubChem BioAssay (NCATS)
